Measured values as given in patent US11180744B2, “Acinetobacter lysins” (priority 2014, dated 2021).

System: A. baumannii strain 1791
Experiment: Transmission electron microscopy after F307 treatment
Settings: EDTA 250 μM + F307, 25° C.

B1: F307: phage lysin polypeptide, SEQ ID NO: 1, 16 kDa (protein, listed as Acinetobacter baumannii)
chain: VKTSNPGVDLIKGFEGLRLKAYDDGVGVWTIGFGTIKYPNGVRVKKGDTCTESQAEEYLRNDLVVFESAINRLVKVPLNQNQFDALASFTYNLGEGNLSISTLLKKLNAKDYKGAAAEFPKWNKAGGRVLAGLVKRRKAEMELFLK
effect on cells in transmission electron micrographs: caused lysis through extrusion of the cytoplasmic membrane to the outside of the cell
